The RNAGym collection of RNA variant scans (doi:10.1073/pnas.2313332121)
Variants at the background level are over-represented here.

B1: TPR 5TU (parent)
chain: GGAUCUUCUCGAUCUAACAAAAAAGACAAAUCUGCCACAAAGCUUGAGAGCAUCUUCGGAUGCAGAGGCGGCAGCCUUCGGUGGCGCGAUAGCGCCAACGUUCUCAACUAUGACACGCAAAACGCGUGCUCCGUUGAAUGGAGUUUAUCAUG

Variants of: B1
Assay: polymerase ribozyme fitness, log enrichment relative to wild type (log ratio); higher = more active; in vitro selection for triplet polymerase activity
Method in brief: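 One round of in vitro selection, in triplicate, was applied to PCR-built, transcribed mutant libraries of each subunit of a heterodimeric triplet polymerase ribozyme. The steps were annealing with a biotinylated primer, partner subunit and triplets, incubation frozen at −7 °C, gel excision of extended constructs, streptavidin-bead capture and RT-PCR. Fitness is the logarithm, base 2, of genotype enrichment over wild-type enrichment from inverse-variance-weighted replicate averages of Illumina-sequenced inputs and outputs, keeping genotypes with ≥10 input reads and ≥1 read per output.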

Polymerase ribozyme fitness (log ratio), ≤ -4.2:
GGAUCUUCUCGAUCUUACAAAAAAGACAAAUCUGCCACAAAGCUUGAGAGCAUCUUCGGAAGCAGAGGCGGCAGCCUUCGGUGGCGCGAUAGUGCCAACGUUCUCAACUAUGACACGCAAAACGCGUGCUCCGUUGAAUAGAUUUUAGCAUG [A16U U61A C93U G140A G143U U148G]
GGAUCUUCUCGAUCUUACAAAAAAGACAAAUCUGCCACAAAGCUUGAGAGCAUCUUCGGAAGCAGAGGCGGCAACCUUCGGUGGCGCGAUAGCGCGAACGUUCUCAACUAUGACACGCAAAACGCGUGCUCCGUUGAAUGGAGUUUAUCAUG [A16U U61A G74A C96G]
GGAUCUUCUCGAUCUUACAAAAAAGACAAAUCUGCCACAAAGCUUGAGAGCAUCUUCGGAUGCAGAGGCGGCAGCCCUCGGUGGCGGGAUAGCGCCAACGUUCUCAACUAUGACACGCAAAACGCGUGCUCCGUUGAAUGGAGUUUAUCAUG [A16U U77C C87G]
GGAUCUUCUCGAUCUUACAAAAAAGACAAAUCUGCCACAAAGCUUGAGAGCAUCUUCGGAUGCAGAGGCGGCAGCCUUCGGUGGCGCGAGAGCGCUAACGUUCUCAACUAUGACACGCAAAACGCGUGCUCCUUUGAAUGGAAUUUAUCAUG [A16U U90G C96U G133U G143A]
GGAUCUUCUCGAUCUACCUAAAAAGACAAAUCUGCCACAAAGCUUGAGAGCAUCUUCGGAUGCAGAGGCGGCAGCAUUCGGUGGCGUGAUAGCGCUAACGUUCUCAACUAUGAAACGCAAAACGCGUGCUCCGUUGAAUGGAGUUUCUGAUG [A17C A19U C76A C87U C96U C114A A147C C149G]
GGAUCUUCUCGAUCUACCAGAAAAUACAAAUCUGCCACAAAGCUUGAUAGCAACUUCGGAUGCAGAUGCGGCAGCCUUCGGUGGCGCGAUAGCAACAACGUUCUCAACUAUGACACGCAAAACGCGUGCUCCGUUGAAUGGAGUUUAUCAUG [A17C A20G G25U G48U U53A G67U G94A C95A]
GGAUCUUCUCGAUCUACCAUAAAAGACAAAUCUGCCUCAAAGCUUGAGAGCAUCUUCGGUUGCAGAGGCGGCAACCUUCGGUGGCGCGAUAGCGCCAACGUUCUCAACUAUGACACGCAAAACGCGUUCUCCGUAGAAUGGAGUUUAUCAUG [A17C A20U A37U A60U G74A G128U U135A]
GGAUCUUCUCGAUCUACCAUAAAAGACAAAUCUGCCUCAAAGCUUGAGAGCAUCGUCGGAUGCAGAGGCGUCAGCCUUCGGUUGCGCGUUAGCGCCAACGUUCUCAACUAUGACACGCAAAACGCGUGCUCCGUUGAAUGGAGUUUAUCAUG [A17C A20U A37U U55G G71U G83U A89U]
GGAUCUUCUCGAUCUACCAACCAAGACAAAUCAGCCACAAAGCUUGCGAGCAUCUUCGGAUGCAGAGGCGGCAGCCUUCGGUGACGCGAUAGCGCCAACGUUCUCAACUAUGACACGCAAAACGCGAGCUCCGUUGAAUGGAGUUUAUCAUG [A17C A21C A22C U33A A47C G84A U127A]
GGAUCUUCUCGAUCUACCAAGAACGACAAAUCUGCGACAAAGCUUGAGAGCAUCUUCGGAUGCAGAGGCGGCAGCCUUCCGUGGCGCGAUAGCGCCAACGUUCUCAACUAUGACACGCAAAACGCGUGCUCCGUUGAAUGGAGUUUAUCAUG [A17C A21G A24C C36G G80C]
GGAUCUUCUCGAUCUACCAAGAAAGACAAAUCUGCCACAAAGCUUGAGAGCAUCUACGGAUGCAGAGGCGGCCGCCUUCGGUGGCGCGAUGGCUCCAACGUUCUCAACUAUGACACGCAAAACGCGUGCUCCGUUGAAUGGAGUUUAUCAUG [A17C A21G U56A A73C A91G G94U]
GGAUCUUCUCGAUCUACCAAUAAAGACAAAUCUGCCACAGAGCUUGAGAGCAUCUUCGGAUGCAGAGGCGGCAGCCUUAGGUGGUGCGAUAGCGCCAACGUUCUCAACUAUGACACGCAAAACGCGUGCUCCGUUGAAUGGAGUUUAGCAUG [A17C A21U A40G C79A C85U U148G]
GGAUCUUCUCGAUCUACCAAACAAGACAAAUCUGCCACAAACCUUGAGAGCAUCUUCGGAUGCAGAGGCGGCAGCCUGCGGUGACGCGAUAGCGCCAACGUUGUCAACUAUGACACGCAAAAGGCGUGCUCCGUUGAAUGGAGUUUAUCAUG [A17C A22C G42C U78G G84A C103G C123G]
GGAUCUUCUCGAUCUACCAAAACAGACAAACCUGCCACAAAGCUUGAGAGCAUAUUCGGAUGCAGAGGCGGCAGCCUUCGGUGACGCGAUAGCGCCGACGUUCUCAACUAUGACACGCAAAACGCGUGCUCCGUUGAAUGGAGUUUAUCAUG [A17C A23C U31C C54A G84A A97G]
GGAUCUUCUCGAUCUACCAAAAGAGUCAAAUCUGCAACAAAGCUUGAGAGCAUCUUCGGAUUCAUAGGAGGCAGCCUUCGGUGACGCGAUAGCGCCAACGUUCUCAACUAUGACACGCAAAACGCGUGCUCCGUUGAAUGGAGUGUAUCAUG [A17C A23G A26U C36A G62U G65U C69A G84A U145G]
GGAUCUUCUCGAUCUACCAAAAUAGACAAAUCUGCCACACAGCUUGAGAGCAUCUUCGGAUGCAGAGGCGGCAGCCUUCGGUGGCUCGAUAGCGCCAACGUUCUCAACUAUGACACGCAAAACGCGUGCUCCGUUGAAUGGAGUUUAUCAUG [A17C A23U A40C G86U]
GGAUCUUCUCGAUCUACCAAAAACGACAAAUCUGCCACACAGCUUCAGAGCAUCUUCGGAUGCAGAGGCGGCAGCCUUCGGUGGCGCAAUAGCGCCAACGUUCUCAACUUUGACACGCAAAACGCGUGCUCCGUUGAAUGGAGUUUAUCAUG [A17C A24C A40C G46C G88A A110U]
GGAUCUUCUCGAUCUACCAAAAAUGAUAAAUCUGCCACAAAGCUUGAGAGCAUCUUCGGAUGCAGAGGCGGCAGCCUUCGGUGGCGCUGUAGCGCCAACGUUCUCUACUAUGACUCGAAAAACGCGUGCUCCGUUGAAUGGAGUUUAUCAUG [A17C A24U C27U G88U A89G A106U A115U C118A]
GGAUCUUCUCGAUCUACCAAAAAAGUCAAAUCUGCCUCAAAGCUUCAGAGCAUCUACGGAUGCAGAAGCGGCAGCCUUCGGUGGCGCGAUAGGGCCAACGUUCUCAACUACGACACGCAAAACGCGUGCUCCGUUGAAUGGAGUUUAUCAUG [A17C A26U A37U G46C U56A G67A C93G U111C]
